Assay results published in the supplement of paper PMC7826260.
The list shows a part of the results. Viral Rep nickase domains cut single-stranded DNA in vitro (1 h at 37 °C, 3 µM enzyme); the outer parts of the 90-letter strands are left off. Numbers give uncut DNA relative to the enzyme-free pool, as log2; the lower, the more was cut; hits are not called. Shares of all reads are compared; where an enzyme cuts many sequences, the uncut ones exceed 0.

Tests used:
Assay in all cases: uncleaved DNA left, log2 of reads against the no-enzyme library (log2 ratio); higher = less cleavage (more negative = more Rep cleavage of the k-mer); sequences stand for … in CTCGTCCG…ACCGGAGA
[1] = system: T1, Rep nickase domain of Muscovy duck circovirus
T1 sequence (residues 1-111 of Rep, tag left off): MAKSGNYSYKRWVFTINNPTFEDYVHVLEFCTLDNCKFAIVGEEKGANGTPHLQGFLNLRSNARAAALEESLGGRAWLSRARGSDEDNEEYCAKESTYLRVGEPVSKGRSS
Protocol: (§1)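 A pool of 90-nt single-stranded DNAs with seven random bases just before the constant AC of the nick site (name = the seven bases) was cut by 3 µM recombinant His6-SUMO-tagged Rep nickase domain (300 nM DNA, 50 mM HEPES pH 8.0, 50 mM NaCl, 1 mM MnCl2, 1 h, 37 °C, three replicates). Uncut DNA was amplified and sequenced.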

[2] = system: T2, Rep nickase domain of banana bunchy top virus
T2 sequence (residues 1-94 of Rep, tag left off): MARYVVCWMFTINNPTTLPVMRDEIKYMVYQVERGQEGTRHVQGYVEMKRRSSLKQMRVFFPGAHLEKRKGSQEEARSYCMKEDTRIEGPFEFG
Protocol: as §1

[3] = system: T3, Rep nickase domain of cabbage leaf curl virus
T3 sequence (residues 1-116 of Rep, tag left off): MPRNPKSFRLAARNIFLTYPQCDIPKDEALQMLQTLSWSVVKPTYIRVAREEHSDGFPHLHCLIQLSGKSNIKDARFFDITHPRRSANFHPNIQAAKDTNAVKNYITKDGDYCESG
Protocol: as §1

[4] = system: T4, Rep nickase domain of chickpea chlorotic dwarf virus
T4 sequence (residues 1-124 of Rep, tag left off): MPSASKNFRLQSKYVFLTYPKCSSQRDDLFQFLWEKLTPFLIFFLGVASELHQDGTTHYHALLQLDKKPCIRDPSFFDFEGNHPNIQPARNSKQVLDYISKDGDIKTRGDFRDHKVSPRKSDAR
Protocol: as §1

[5] = system: T5, Rep nickase domain of faba bean necrotic yellows virus
T5 sequence (residues 1-98 of Rep, tag left off): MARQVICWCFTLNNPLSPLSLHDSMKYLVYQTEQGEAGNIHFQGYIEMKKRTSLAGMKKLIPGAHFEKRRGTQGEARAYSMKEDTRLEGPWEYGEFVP
Protocol: as §1

[6] = system: T6, Rep nickase domain of maize striate mosaic virus
T6 sequence (residues 1-117 of Rep, tag left off): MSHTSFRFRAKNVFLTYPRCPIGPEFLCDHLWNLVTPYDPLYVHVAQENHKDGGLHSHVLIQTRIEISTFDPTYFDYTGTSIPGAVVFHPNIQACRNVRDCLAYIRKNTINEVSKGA
Protocol: as §1

[7] = system: T7, Rep nickase domain of porcine circovirus 2
T7 sequence (residues 2-116 of Rep, tag left off): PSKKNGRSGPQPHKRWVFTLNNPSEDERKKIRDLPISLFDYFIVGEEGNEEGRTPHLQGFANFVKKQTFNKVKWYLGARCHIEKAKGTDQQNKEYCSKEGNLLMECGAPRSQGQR
Protocol: as §1

[8] = system: T8, Rep nickase domain of tomato golden mosaic virus
T8 sequence (residues 1-124 of Rep, tag left off): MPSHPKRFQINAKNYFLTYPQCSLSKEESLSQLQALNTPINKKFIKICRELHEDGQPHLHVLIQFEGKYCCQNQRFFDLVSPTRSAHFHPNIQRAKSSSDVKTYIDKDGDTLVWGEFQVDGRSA
Protocol: as §1

[9] = system: T9, Rep nickase domain of tomato yellow leaf curl virus
T9 sequence (residues 1-136 of Rep, tag left off): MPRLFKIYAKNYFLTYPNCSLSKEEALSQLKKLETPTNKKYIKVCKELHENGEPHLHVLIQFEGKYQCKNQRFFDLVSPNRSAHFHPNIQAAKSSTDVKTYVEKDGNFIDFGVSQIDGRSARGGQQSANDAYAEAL
Protocol: as §1

[10] = system: T10, Rep nickase domain of wheat dwarf virus
T10 sequence (residues 1-137 of Rep, tag left off): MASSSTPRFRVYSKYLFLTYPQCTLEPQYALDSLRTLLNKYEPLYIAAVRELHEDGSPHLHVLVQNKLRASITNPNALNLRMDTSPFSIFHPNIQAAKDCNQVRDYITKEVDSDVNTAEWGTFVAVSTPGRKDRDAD
Protocol: as §1

Sequence	uncleaved DNA left (log2) [1]	uncleaved DNA left (log2) [2]	uncleaved DNA left (log2) [3]	uncleaved DNA left (log2) [4]	uncleaved DNA left (log2) [5]	uncleaved DNA left (log2) [6]	uncleaved DNA left (log2) [7]	uncleaved DNA left (log2) [8]	uncleaved DNA left (log2) [9]	uncleaved DNA left (log2) [10]
GCACTAG	-0.0426	-0.0693	-0.693	-0.554	0.053	-1.17	-0.0135	0.0461	-0.0839	-0.0541
AAAGTTA	0.023	0.0393	-0.332	-1.57	0.0417	-0.306	-0.146	0.147	-0.0443	-0.0538
TTTTCAA	0.0576	0.0966	0.267	0.459	-0.00115	0.679	-0.0408	-0.0168	0.0907	0.138
ACTGGTT	0.0439	0.0269	-0.0347	-0.152	-0.0405	0.434	-0.109	0.11	-0.063	-0.0491
TTGACAC	0.114	0.108	0.366	0.626	0.165	0.463	0.162	0.0756	0.103	0.249
TCCCCCT	-0.0111	-0.167	-0.115	-1.67	0.118	-0.354	-0.392	-0.153	-0.0809	-0.052
ATGCATG	0.105	0.00538	-0.334	-0.392	0.0683	-0.751	0.234	-0.0337	-0.0127	-0.0879
TCCCATT	-0.0874	0.0288	-0.0763	-1.8	-0.0935	-0.665	-0.695	-0.198	0.214	0.0188
TCGCTTC	0.0549	-0.0193	0.204	-0.118	0.12	-0.626	0.0627	-0.121	0.00453	-0.114
ATTGTAC	-0.0894	-0.163	-0.231	-0.883	-0.0612	-1.09	-0.0624	-0.00813	-0.0286	-0.0832
AGGAGAA	0.0954	0.0901	0.342	1.2	0.00503	1.2	0.189	0.0402	-0.00973	0.0281
TCAAAAG	-0.0489	-0.0376	-0.68	-0.626	0.00556	-1.21	0.229	-0.0235	0.0535	-0.122
CCGCACT	0.165	0.0552	-0.0589	-1.55	-0.043	-0.323	-0.207	0.0863	-0.0886	-0.0225
TTTTCCG	0.00344	-0.135	-0.891	-0.331	-0.0116	-1.21	0.104	-0.147	-0.0635	-0.139
GAACACG	-0.0499	-0.0798	-0.721	-0.413	-0.00399	-0.747	0.216	-0.0548	0.0153	-0.088
